Experimental data published in PubChem BioAssay AID1030 (National Center for Advancing Translational Sciences (NCATS), 2008).
In all, about 220,000 compounds went through this assay and about 16,000 (7.3%) were called active. The inconclusive results got no clear call from the source; some entries with a clear call stand among them for comparison. Calls come from the whole dose curve; as a rule, active = well fitted inhibition curve with a large enough effect (not every such curve was filed as active); inconclusive = small, poorly fitted or top-dose-only effect, or another doubt; inactive = no such curve, though single readings can be large or run the other way. Potencies of inconclusive entries are left out as doubtful fits.

Each molecule was assayed against Aldehyde dehydrogenase 1A1 (Homo sapiens) (UniProt P00352) (assay: qHTS Assay for Inhibitors of Aldehyde Dehydrogenase 1 (ALDH1A1)). Details: Purified ALDH1A1, NADH fluorescence, propionaldehyde substrate; series mostly up to 75.3 µM.
Potency is the fitted concentration of half-maximal effect; tags give direction and shape of the fitted curve.

Sequence of UniProt P00352 (P00352 whole entry, looked up): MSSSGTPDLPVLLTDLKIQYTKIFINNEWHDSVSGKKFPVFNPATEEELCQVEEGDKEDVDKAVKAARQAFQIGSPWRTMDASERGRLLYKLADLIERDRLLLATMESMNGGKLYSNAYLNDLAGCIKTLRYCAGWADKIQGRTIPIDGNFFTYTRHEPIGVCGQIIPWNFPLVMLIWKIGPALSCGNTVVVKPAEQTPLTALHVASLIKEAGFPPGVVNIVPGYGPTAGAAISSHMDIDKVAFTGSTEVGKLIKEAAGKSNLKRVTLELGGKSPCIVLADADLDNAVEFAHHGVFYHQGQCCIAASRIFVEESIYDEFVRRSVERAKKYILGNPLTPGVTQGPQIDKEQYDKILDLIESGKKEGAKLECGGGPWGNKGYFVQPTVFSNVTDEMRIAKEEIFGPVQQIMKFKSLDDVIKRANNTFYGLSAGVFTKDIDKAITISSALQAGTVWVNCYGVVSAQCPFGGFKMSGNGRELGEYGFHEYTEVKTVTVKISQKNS

| SMILES | Potency |
| --- | --- |
| CCNc1nc(N)nc(Oc2ccc(OCCOc3ccc(Cl)cc3Cl)nn2)n1 | inactive |
| O=C(/C=C/c1ccc(O)c(O)c1)NC(=O)c1ccccc1O | inactive |
| NC(=O)CN1C(=O)C(O)(CC(=O)c2ccccc2O)c2ccccc21 (configuration not stated) | inconclusive [inhibitor, partial curve] |
| CC(C)CNC(=O)c1cccc(C(=O)NCC(C)C)c1 | inactive |
| Cc1c(O)cc(O)c2c(=O)c(-c3ccc(O)cc3)coc12 | active: 25.1 µM |
| COc1ccc(-n2c(N)c(C(=O)NCc3cccnc3)sc2=S)cc1 | inactive |
| CCCCn1c(SCC(=O)Nc2cc(C)on2)nc2ccccc2c1=O | inconclusive [inhibitor, single point] |
| CN(c1ccc(O)cc1)c1nc(-c2ccccc2)cs1 | inactive |
| O=S(Cc1ccc(Br)cc1)Cc1nnc(SCc2c(F)cccc2Cl)n1-c1ccccc1 (configuration not stated) | inconclusive [inhibitor, single point] |
| O=c1c2cc(NC(=S)N3CCCCCC3)ccc2nc2n1CCCCC2 | inconclusive [inhibitor, single point] |
| CCc1nc2c(oc3ccccc32)c(=O)[nH]1 | inconclusive [inhibitor, single point] |
| CC(=O)c1ccc(S(=O)(=O)N2CCN(C)CC2)cc1 | inactive |
| CC(C)(C)CC(C)(C)N1CNC(=S)NC1 | inconclusive [inhibitor, partial curve] |
| O=C(Nc1ccsc1C(=O)NC1CCCCC1)c1ccc(F)cc1 | inconclusive [inhibitor, single point] |
| CCN1CCN(CCNC(=O)c2ccc(/C=C3\Sc4ccccc4N(Cc4ccccc4F)C3=O)cc2)CC1 | inconclusive [inhibitor, single point] |
| NC(=O)c1sc2nc3c(c(-c4ccc(Cl)cc4)c2c1N)CCCC3 | inconclusive [inhibitor, partial curve, poor fit] |
| COc1ccc(C(NC(=O)/C=C/c2ccco2)c2ccc(OC)cc2)cc1 | inconclusive [inhibitor, single point] |
| CN(Cc1ccco1)c1ncncc1-c1cccnc1 | inconclusive [inhibitor, single point] |
| CC1CCCC(C)N1C(=O)COC(=O)c1cc(Br)ccc1Cl (configuration not stated) | active: 20 µM |
| Cc1ccc(-c2ccc(C(=O)NCc3ccccc3)o2)c2ccccc12 | inconclusive [inhibitor, partial curve] |
| O=C(Nc1csnn1)c1csnn1 | inconclusive [inhibitor, partial curve] |
| O=c1oc2ccccc2cc1-c1nc2c(s1)CCc1ccccc1-2 | inconclusive [inhibitor, partial curve] |
| CCOC(=O)C1(CCCc2ccccc2)CCN(C(=O)c2cc(C)nc(C)n2)CC1 | inconclusive [inhibitor, single point] |
| CCCc1cc(=O)n2[nH]c(-c3ccco3)nc2n1 | inconclusive [inhibitor, single point] |

| SMILES | Potency |
| --- | --- |
| CC(C)(C)c1nc2ccc([N+](=O)[O-])cc2[nH]1 | inconclusive [inhibitor, single point] |
| Cc1cccc(C(=O)N[C@H](C(=O)OCc2cc(=O)n3c(n2)sc2ccccc23)C(C)C)c1 | inconclusive [inhibitor, single point] |
| Cc1nc(SC2CC(=O)N(c3ccccc3)C2=O)n[nH]1 (configuration not stated) | active: 0.355 µM |
| COc1ccc(S(=O)(=O)N2CCOCC2)cc1C(=O)Nc1nc2ccccc2s1 | inconclusive [inhibitor, single point] |
| CC(C)c1ccccc1NC(=O)COC(=O)CCN1C(=O)/C(=C\C=C\c2ccccc2)SC1=S | inconclusive [inhibitor, single point] |
| COc1ccccc1C(=O)NC(CCSC)C(=O)NC1CCCCCC1 (configuration not stated) | inactive |
| CC(C)(C)NC(=O)CSCc1ccc(Br)cc1 | inactive |
| N/C(=N\OC(=O)COc1ccc(Cl)cc1Br)c1ccncc1 | inconclusive [inhibitor, single point] |
| COc1ccc(S(=O)(=O)N(Cc2cc3cc(C)ccc3[nH]c2=O)CC2CCCO2)cc1 (configuration not stated) | active: 8.91 µM |
| CC(=O)Nc1ccc(S(=O)(=O)N2CCN(C3CCCCCCC3)CC2)cc1 | inconclusive [inhibitor, partial curve] |
| CCCCCc1ccc(CC(=O)O)cc1 | inconclusive [inhibitor, partial curve, poor fit] |
| C=CCn1c(SCc2ccc(Cl)cc2)nc2c1c(=O)[nH]c(=O)n2C | inactive |
| CCOC(=O)CNC(=O)CSc1nnc(NC(=O)c2ccc(C)cc2)s1 | inconclusive [inhibitor, single point] |
| COc1ccc(S(=O)(=O)NC(CC(=O)NCc2ccc3c(c2)OCO3)c2ccco2)cc1 (configuration not stated) | inconclusive [inhibitor, partial curve] |
| COc1ccc(Cn2c(=O)[nH]c3cc(C(=O)NCCCN4CCCCC4)ccc3c2=O)cc1 | inactive |
| CC(=O)Nc1ccc(C2=NNC(=Nc3cccc(S(=O)(=O)N(C)C)c3)SC2)cc1 | inconclusive [inhibitor, partial curve] |
| Cc1ccc(C)n1-c1ccc(-c2ccn[nH]2)cc1 | inconclusive [inhibitor, single point] |
| N/C(=N\OC(=O)CCCc1ccccc1)c1ccccn1 | inactive |
| O=C(Nc1ccccc1N1CCN(c2ccc(F)cc2)CC1)c1ccccc1 | inconclusive [inhibitor, partial curve] |
| COc1cc(NS(C)(=O)=O)c(OC)cc1NC(=O)c1ccccc1 | active: 25.1 µM |
| Cc1ccc(S(=O)(=O)NCCCN2CCOCC2)cc1C | inactive |
| COC(=O)CSc1nc(-c2ccccc2)cc(-c2ccco2)c1C#N | inconclusive [inhibitor, partial curve] |
| O=C(COC(=O)c1c(Cl)cccc1Cl)NC1CCCCC1 | inactive |
